Laboratory results reported in PubChem BioAssay AID588855 (National Center for Advancing Translational Sciences (NCATS), 2011).
Hit rate of the full screen: of about 410,000 compounds, about 5,000 (1.2%) were called active. Inconclusive results, whose numbers are uncertain, are shown with a selection of clear calls. The call rests on the fitted dose curve; in most records, active means well fitted inhibition curve with a large enough effect; inconclusive means small, poorly fitted or top-dose-only effect; inactive means no such curve, though single readings can be large or run the other way. Potencies beside an inconclusive call are fits to weak or partial responses and may not hold up.

assay: qHTS for Inhibitors of TGF-b; conditions: HepG2 CAGA-GFP TGF-b/SMAD3 reporter, GFP fluorescence, 18 h, TGF-beta stimulated, 500 pg/mL final; series mostly up to 46.1 µM; activity, negative = inhibition: at the top concentration; further: nearly all actives have a fitted effect of over 65% in size
How it was run: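 Inhibition was scored as loss of TGF-beta-induced (500 pg/mL final, 18 hours, 37 degrees C) GFP in HEPG2 cells carrying a CAGA-GFP reporter, in DMEM with 1% FBS. Well GFP was summed per cell; Activity was normalised to unstimulated and stimulated DMSO wells, then concentration-response fitting.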
On the % scale 0 is the no-effect control and ±100 the full control effect; potency means the concentration at half of the fitted maximal effect; tags describe the fitted curve by direction and shape.

SMILES	Potency	activity, negative = inhibition
CCOc1cccc(/C=N/NC(=S)Nc2ccccc2[N+](=O)[O-])c1O	inconclusive: 0.316 µM [inhibitor, full curve]	
Cc1c(C(=O)OCC(C)C)[nH]c2c1C(=O)CC(c1ccco1)C2 (centres undefined)	inconclusive: 3.55 µM [inhibitor, partial curve]	
Cc1cc2n(n1)CCCN2C(=O)Nc1ccc(Cl)cc1	inconclusive: 15.8 µM [inhibitor, single point]	
Cc1c(NP(=O)(Oc2ccccc2F)Oc2ccccc2F)c(=O)n(-c2ccccc2)n1C	inconclusive: 5.01 µM [inhibitor, full curve]	
Cc1nc2ccc(C(=O)N3CCCC(CO)(Cc4ccc(F)cc4F)C3)cc2nc1C (centres undefined)	inconclusive: 17.8 µM [inhibitor, single point]	
O=C(NN=Cc1c(O)ccc2ccccc12)c1ccc2c(c1)OCO2	inconclusive: 12.6 µM [inhibitor, partial curve, poor fit]	
COc1ccc(-n2cc(CNCCCn3ccnc3)c(-c3cccc(F)c3)n2)cc1	inconclusive: 11.2 µM [inhibitor, partial curve]	
Cc1nc(N2CCN(Cc3ccccc3)CC2)nc2c1C(=O)CCC2	inconclusive: 3.98 µM [inhibitor, full curve, poor fit]	
O=C(Nc1ccc(Cl)cc1)N[C@@H]1c2c(ccc3ccccc23)OC[C@@H]1CO	inconclusive: 17.8 µM [inhibitor, partial curve, poor fit]	
Cc1csc(Sc2nc3c(c(=O)[nH]c(=O)n3C)n2CCCc2ccccc2)n1	inconclusive: 5.62 µM [inhibitor, single point]	
CCCN1CCC(=O)N([C@H](COc2ccccc2)CC(C)C)CC1	inconclusive: 6.31 µM [inhibitor, partial curve]	
O=C(Cc1ccccc1)N/N=C/c1cccc([N+](=O)[O-])c1	inconclusive: 35.5 µM [inhibitor, single point]	
CCCCN(C)CC(O)Cn1cc(/C=C/C(=O)c2ccc(OC)c(OC)c2)c2ccccc21 (centres undefined)	inconclusive: 35.5 µM [inhibitor, single point]	
COc1ccc(N(CC(O)Cn2c3ccccc3c3ccccc32)S(=O)(=O)c2ccccc2)cc1 (centres undefined)	inconclusive: 15.8 µM [inhibitor, single point]	
COc1cc(N(C)C)c(OC)cc1C=C1C=CC=C1	inconclusive: 11.2 µM [inhibitor, partial curve]	
CCN(C(=O)CSc1nnc(-c2ccc(OC)cc2)n1C(C)C)C1CCS(=O)(=O)C1 (centres undefined)		inactive: 3.57%
C[C@H](CO)N1C[C@H](C)[C@@H](CN(C)CC2CCCCC2)Oc2c(NC(=O)Cc3ccccc3)cccc2C1=O	active: 15.8 µM	
NC(=O)c1cccc(-c2coc3c(C(=O)NCc4ccccc4)cccc23)c1	inconclusive: 5.62 µM [inhibitor, single point]	
Cc1ccc(C)c(S(=O)(=O)c2nnn3c2nc(NCc2cccs2)c2sccc23)c1	inconclusive: 3.98 µM [inhibitor, full curve, poor fit]	
COc1ccc(OC)c(CNc2ccc([N+](=O)[O-])cc2C)c1	inconclusive: 35.5 µM [inhibitor, partial curve, poor fit]	
COc1ccc(N2CC(NC(=O)c3ccc4c(c3)OCO4)CC2=O)cc1OC (centres undefined)	inconclusive: 35.5 µM [inhibitor, single point]	
CCc1ccc(-n2c(SCC(=O)NC(C)CC)nc3n[nH]c(C)c3c2=N)cc1 (centres undefined)	inconclusive: 1.78 µM [inhibitor, full curve, poor fit]	

SMILES	Potency	activity, negative = inhibition
Cc1cc(NC(=O)c2ccc(-c3ccc(Br)cc3)o2)cc(-c2nc3ncccc3o2)c1O	inconclusive: 4.47 µM [inhibitor, partial curve]	
Cc1ccccc1NC(=O)C1CCCN(c2ncnc3onc(-c4ccc(F)cc4)c23)C1 (centres undefined)		inactive: -3.26%
O=C(NN(c1ccccc1)c1ccccc1)c1ccc([N+](=O)[O-])o1	inconclusive: 35.5 µM [inhibitor, partial curve, poor fit]	
Cc1c(-c2ccccc2)c(=O)oc2c(CN3CCN(C)CC3)c(O)ccc12	inconclusive: 25.1 µM [inhibitor, single point]	
Cc1ccc(NC(=O)C2CCN(S(=O)(=O)c3cccs3)CC2)c(O)c1	inconclusive: 35.5 µM [inhibitor, single point]	
COc1ccc(N2CCN(c3nc(NCCc4ccc(OC)c(OC)c4)nc(OC)n3)CC2)cc1	inconclusive: 35.5 µM [inhibitor, single point]	
C=CCNc1nc(NCc2cccc(OC)c2)c2sc(-c3ccccc3)cc2n1	inconclusive: 35.5 µM [inhibitor, single point]	
O=C(NCCc1ccccc1)C1CCN(S(=O)(=O)c2cccs2)CC1	inconclusive: 17.8 µM [inhibitor, single point]	
Cc1cc(/C=N/O)c(C)n1-c1cccc(Cl)c1		inactive: -26.1%
O=S(=O)(c1ccccc1)c1ncc(C(F)(F)F)cc1Cl	inconclusive: 28.2 µM [inhibitor, single point]	
CC1CCN(CCOc2ccc(Cl)c(Cl)c2)CC1	inconclusive: 25.1 µM [inhibitor, single point]	
CC(/C=N/n1c(-c2ccccc2)n[nH]c1=S)=C\c1ccco1		inactive: 1.22%
CSc1ccc(/C=N/n2c(C3CCCCC3)n[nH]c2=S)cc1		inactive: -10.7%
Cc1nn(-c2ccc(C(F)(F)F)cn2)c(C)c1Oc1ccccc1O	inconclusive: 35.5 µM [inhibitor, single point]	
Cc1ccc(Cl)cc1N1CCN(C(=O)c2cccn2-c2nnc(N3CCCCC3)s2)CC1	inconclusive: 0.316 µM [inhibitor, partial curve, poor fit]	
COC(=O)c1ccc(COc2cccc3c2CCN(Cc2ccccc2)C3=O)o1	inconclusive: 20 µM [inhibitor, single point]	
CCN(C(=O)CSc1nc2cc(C(=O)OC)ccc2c(=O)n1Cc1ccco1)c1cccc(C)c1		inactive: 18.2%
O=C(NCc1ccc(F)cc1)C(c1ccccc1)c1ccccc1		inactive: -2.92%
COc1ccccc1Cc1c(-c2cccc(Br)c2)nc2c(C)cc(Br)cn12	inconclusive: 35.5 µM [inhibitor, single point]	
CNC(=O)/C(C#N)=C/c1c(N2CCCCCC2)nc2c(C)cccn2c1=O	inconclusive: 14.1 µM [inhibitor, single point]	
CCCCNC(=O)CN1C(=O)CSc2ccc(S(=O)(=O)N3CCC(C)CC3)cc21	inconclusive: 1.78 µM [inhibitor, partial curve, poor fit]	
O=C(NC1CCCc2ccccc21)C1CCN(c2nnc(-n3cccc3)s2)CC1 (centres undefined)	inconclusive: 20 µM [inhibitor, partial curve, poor fit]	

SMILES	Potency	activity, negative = inhibition
Cc1cc(/C=C2\SC(=S)NC2=O)cc(C)c1O		inactive: 21.4%
CC(=O)c1cccc(N(C(=O)Cn2nnc3ccccc32)C(C(=O)NCc2ccccc2)c2ccc(F)cc2)c1 (centres undefined)	inconclusive: 20 µM [inhibitor, single point]	
CCCCN(CC)C(=O)CCn1c(=O)c2cccn2c2cccnc21		inactive: -20.7%
O=c1c2cn[nH]c2nc(SCc2cc(=O)n3cc(Br)ccc3n2)n1-c1ccc(Br)cc1	inconclusive: 35.5 µM [inhibitor, single point]	
Cc1ccc(CN2CCCn3nc(C(=O)NCc4ccccc4Cl)cc3C2=O)cc1	inconclusive: 25.1 µM [inhibitor, single point]	
CCOC(=O)c1c(S(=O)(=O)NCC(=O)Nc2ccc(Cl)c(C(F)(F)F)c2)c(C)n(C)c1C	active: 11.2 µM	
Cn1cc(CNCc2cn[nH]c2-c2ccc(F)cc2)c(-c2ccc3c(c2)OCCO3)n1		inactive: 3.17%
COc1ccc(CCNC(=O)/C=C/c2ccc3ccccc3n2)cc1OC	inconclusive: 35.5 µM [inhibitor, single point]	
O=C(O)c1cc(O)c2c(c1)[C@@H]([C@H]1c3cc(C(=O)O)cc(O)c3C(=O)c3c(O[C@@H]4O[C@H](CO)[C@@H](O)[C@H](O)[C@H]4O)cccc31)c1cccc(O[C@@H]3O[C@H](CO)[C@@H](O)[C@H](O)[C@H]3O)c1C2=O	active: 14.1 µM	
CN(CC(=O)Nc1ccc(N2CCOCC2)cc1)Cc1cc(=O)n2ccsc2n1		inactive: -15.6%
CC(Oc1ccc(F)cc1)C(=O)Nc1ccc2ccccc2c1 (centres undefined)		inactive: 3.93%
CCC(=O)Oc1ccc(-c2cnc3ccccc3n2)cc1	inconclusive: 35.5 µM [inhibitor, single point]	
CN1C(=O)SC(Nc2ccccc2)C1=O (centres undefined)	inconclusive: 14.1 µM [inhibitor, partial curve, poor fit]	
Cc1nn(CCCC(=O)NCc2cccc(F)c2)c(=O)c2nn(-c3ccccc3)c(C)c12		inactive: -41.1%
Cc1ccc2nc(NC(=O)CSc3nc(=O)n(CCCN(C)C)c4c3CCC4)sc2c1	inconclusive: 35.5 µM [inhibitor, single point]	
COc1ccc(/C=C/C(=O)c2cc(Br)ccc(=O)c2O)cc1	inconclusive: 35.5 µM [inhibitor, single point]	
COc1cccc(NC(=O)CN(Cc2ccccc2)S(=O)(=O)c2ccc3nc(C)sc3c2)c1	inconclusive: 35.5 µM [inhibitor, single point]	
COc1ccc(CN2CCC(CO)(CCOc3ccccc3)CC2)c(OC)c1C		inactive: -3.62%
CC(CCc1ccccc1)NC(=O)CNC(=O)COc1ccccc1 (centres undefined)		inactive: -9.03%
COCCn1c(C)c(C)c2c(NCCc3ccccc3)ncnc21		inactive: -6.74%
